Source: the RNAGym collection of RNA variant scans (doi:10.1073/pnas.2313332121)
Variants at the floor of the assay are shown more often than the library holds them.

B1: TPR 5TU (parent)
chain: GGAUCUUCUCGAUCUAACAAAAAAGACAAAUCUGCCACAAAGCUUGAGAGCAUCUUCGGAUGCAGAGGCGGCAGCCUUCGGUGGCGCGAUAGCGCCAACGUUCUCAACUAUGACACGCAAAACGCGUGCUCCGUUGAAUGGAGUUUAUCAUG

Variants of: B1
Test: polymerase ribozyme fitness, log enrichment relative to wild type (log ratio); higher = more active; in vitro selection for triplet polymerase activity
Summary of the method: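 Mutant libraries were PCR-built and transcribed for each subunit of a heterodimeric triplet polymerase ribozyme and selected for one round in triplicate at −7 °C, frozen, before gel excision of extended constructs and streptavidin-bead capture. Input and output libraries were Illumina-sequenced, keeping genotypes with ≥10 input reads and ≥1 read per output. Fitness is a logarithmic ratio of genotype to wild-type enrichment, in base 2, using inverse-variance-weighted replicate averages.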

Row | Variant | polymerase ribozyme fitness (log ratio)
1 | A17G A21G C35A C54A A66U A91G U102C C103G G143C | ≤ -4.2
2 | C18A U56A G92U C105U C114A U144G | -3.79
3 | C18A A23C G59A G88C A107G A142U | ≤ -4.2
4 | A17G A64G C93G | ≤ -4.2
5 | A17G U44G C85U G141C | ≤ -4.2
6 | A17U A30G C36U G70A C95G U144G | ≤ -4.2
7 | A17U U55A A60C G80U | ≤ -4.2
8 | A17C G62U G88U A106U U111G | ≤ -4.2
9 | A17U A47G C57U G74C U77C U82A G83A U102G A150G | ≤ -4.2
10 | A17U C35A C54U U56C G88U A122C | ≤ -4.2
11 | C18G A28G C87U | ≤ -4.2
12 | A17U U33A U45A C57G G70C C87A A98U | ≤ -4.2
13 | A17U G42A A52G C87A | ≤ -4.2
14 | A17C G46A C57U G58A G84A G140A | ≤ -4.2
15 | A17C U90A C93G | ≤ -4.2
16 | A17U C93G U102A A107C G143A | ≤ -4.2
17 | A17U C54A C63U G92A C105U G140U | ≤ -4.2
18 | A17C C38U A41C A60C | -1.39
19 | A17G C18U A40C C99G | -3.19
20 | C18G A26G A28U A30U A40C G59U G70U G140C | ≤ -4.2
21 | A17U A19C G86A C96A A110U U139G | ≤ -4.2

Row | Variant | polymerase ribozyme fitness (log ratio)
22 | A17G C27G G34A G88U C96A U101G U102G U146A A150G | ≤ -4.2
23 | A17C C43U G50U C87U C116G U144G | ≤ -4.2
24 | C18A A60C G84U A89U G117C C125U U151A | ≤ -4.2
25 | C18A G84A G100U C125G | ≤ -4.2
26 | A17G A19C G80C G92A C116U G136C G140A | ≤ -4.2
27 | C18A C54A A66U C87A G88U U104G | ≤ -4.2
28 | A17U C87U U90C C99G | -3.69
29 | A17U C96A | -0.735
30 | A17U A52U A142C | -3.3
31 | A17C U45A C54G G74A A91C U139G | ≤ -4.2
32 | A17C G86U C103U G112U | ≤ -4.2
33 | C18A C36A A37U G94C C105G G128U U135C G152A | ≤ -4.2
34 | A17U A30G C79A G83A C116G | ≤ -4.2
35 | A17G G71A | -3.06
36 | A17C C54A C57G A107U | ≤ -4.2
37 | A17G A40C G48C | -1.5
38 | A17U G25U U55A C87G | ≤ -4.2
39 | A17U C87U G94A C103G | ≤ -4.2
40 | A17G C18A A22C C75G G88U | ≤ -4.2
41 | C18G A28U A29U A66G G67C C96U A106C | ≤ -4.2
42 | A17U A23G C36U G68C A89C | ≤ -4.2

Row | Variant | polymerase ribozyme fitness (log ratio)
43 | A17C U31C C69A A73C C99U G133C | ≤ -4.2
44 | A17U A26U C27U C36G G141C | ≤ -4.2
45 | A17C C35U G86A A122G | -1.01
46 | A17G A21U A23C A30U U56G C75U C96U | ≤ -4.2
47 | A17C U33G G58C A91G U104C U145G | ≤ -4.2
48 | A17C G42U G88A U101C C108U | ≤ -4.2
49 | A17G C38U C57A C63A A115G U144A | -1.28
50 | C18G A19C U31G A40U G71U C85U U90G G100A A150U | ≤ -4.2
51 | A17C U56A C75A G84U C87A A89G | ≤ -4.2
52 | A17G C129G | -3.57
53 | A17G G58C U82G G88A G117A A119G C149U | ≤ -4.2
54 | A17U A19U C36A G58U C93A G94A A121C U148G | ≤ -4.2
55 | A17U G50A C87G G141A | ≤ -4.2
56 | A17G C18G G68C A91U G92U G124U | ≤ -4.2
57 | C18G A29C C43A C76A C118A | ≤ -4.2
58 | A17U C57A G83C C99G | ≤ -4.2
59 | A17U A26C A49U G50C C95A C105A | ≤ -4.2
60 | C18G A19U A28C G58C C85U | ≤ -4.2
61 | A17G G88U | ≤ -4.2
62 | A17C C87G C116G A120C U144A | ≤ -4.2
63 | A17G C32G C76U | ≤ -4.2

Row | Variant | polymerase ribozyme fitness (log ratio)
64 | C18G A28G C85G A91G G92A A119C | ≤ -4.2
65 | A17U A21G C27G A28U C85A C87U C95G | ≤ -4.2
66 | A17G C35A G88A A122G | ≤ -4.2
67 | A17G A21G A52U U56A A91G | -4
68 | C18A A19G C85U U101G C125U C129A | ≤ -4.2
69 | A17U A26G C85U | ≤ -4.2
70 | A17U U56A U78G U102G U130A U151A | ≤ -4.2
71 | A17U C63A C76G G86C C87U U127A | ≤ -4.2
72 | A17G A26G G50C A73U G74A C76G G143U | ≤ -4.2
73 | C18A A29G A37C C85U A91U C93U A122G A150C | ≤ -4.2
74 | A17U C85A | -1.17
75 | A17G A28C U55G C99G G141A C149A | ≤ -4.2
76 | A17U U55A G84C C95G U148A | -3.23
77 | A17U A19G C35A C57A G84A C95A C129G G133C C149U | ≤ -4.2
78 | A17U C27U G50C U53A G71A C95A | ≤ -4.2
79 | A17C C43A G59C G68A C95U C105A A107G | ≤ -4.2
80 | A17G G50C G88C | ≤ -4.2
81 | A17U G25C A29U G48C U53A G70U C93G C129A C131A A150C | ≤ -4.2
82 | C18A G25C A28U G62C C76G U82C A120U U127G U139A | ≤ -4.2
83 | C18A A30U C85A | ≤ -4.2
84 | A17G C27U C32G C54U G81C C132G U135A | ≤ -4.2
